Results: PubChem BioAssay (NCATS)
“And” between values parts separate entries of the source, which are not always exact repeats. Equal values may be shown once. Inconclusive results, whose numbers are uncertain, are shown with a selection of clear calls. Potencies of inconclusive entries are doubtful fits and often do not repeat. The source made the active and inactive calls. The call rests on the fitted dose curve; in most records, active means well fitted curve in the direction sought with a large enough effect; inconclusive means small, poorly fitted or top-dose-only effect, or another doubt; inactive means no such curve, though single readings can be large; an effect the other way counts as inactive or inconclusive.

Key:
[1] = Viability qHTS for spleen associated tyrosine kinase inhibitor (SYKi) naive MV4-11 cells (AID 1963823); conditions: MV4-11 AML viability, CellTiter-Glo luminescence, 72 h; viability (% of control): at 45 µM (top of the series); further: nearly all actives have a fitted effect of over 40% in size
How it was run: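 qHTS, SYK inhibitor-naive MV4-11; 500 cells/well; 72 hr compound exposure, 37 C; CellTiter-Glo added, 10 min RT; luminescence read.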

[2] = Viability qHTS for spleen associated tyrosine kinase inhibitor (SYKi) drug resistant MV4-11 cells (AID 1963824); further: nearly all actives have a fitted effect of over 35% in size
How it was run: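 SYK inhibitor-resistant MV4-11 AML cells, 500 per well, added to predispensed compounds and incubated 72 hr at 37 C, 5% CO2. Viability measured by CellTiter-Glo luminescence after 10 min at room temperature.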

[3] = Cellular viability qHTS for adrenocortical cancer (ACC) cell line SW-13 (AID 1963989); conditions: SW-13 ACC cells viability, CellTiter-Glo, 48 h; activity (max response): stronger effect = lower value; further: nearly all actives have a fitted effect of over 65% in size;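 on activity (max response): cells grown in serum-free medium with ITS supplement; on the % scale 0 is the no-effect control and ±100 the full control effect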
How it was run: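 Viability was read as CellTiter-Glo luminescence after 48 h compound treatment (up to 46 uM final) of SW-13 cells grown serum-free; titration curves were fit with a four-parameter logistic model to give IC50 and efficacy.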

[4] = Cellular viability qHTS for adrenocortical cancer (ACC) cell line NCI-H295R (AID 1963990); conditions: CellTiter-Glo ATP luminescence, 48 h; activity change, negative = viability loss: at 46.1 µM (top of the series); further: nearly all actives have a fitted effect of over 60% in size;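 on activity change, negative = viability loss: 0% = DMSO only wells and -100% = full killing with cytotoxic reference compound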
How it was run: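 CellTiter-Glo ATP luminescence, read 48 h after compound addition, measured viability of NCI-H295R adrenocortical cells grown serum-free with ITS. Final concentrations spanned up to 46 uM. Data normalized to DMSO and doxorubicin, fitted for IC50 and maximal response.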
Potency means the concentration at half of the fitted maximal effect; tags describe the fitted curve by direction and shape.

| Compound | Potency [1] | Potency [2] | Potency [3] | Potency [4] | activity (max response) [3] |
| --- | --- | --- | --- | --- | --- |
| O=C(Nc1ccc(S(=O)(=O)N2CCOCC2)cc1)c1cc(Cl)ccc1NS(=O)(=O)c1ccc(Cl)s1 | inconclusive: 21.1 µM [cytotoxic, single point] and inconclusive: 23.5 µM [cytotoxic, single point] | inconclusive: 16.8 µM [cytotoxic, partial curve] and inconclusive: 33.2 µM [cytotoxic, single point] | inconclusive: 18.4 µM [cytotoxic, single point] and inconclusive: 25.1 µM [cytotoxic, single point] | active: 20.6 µM and active: 25.1 µM |  |
| Cc1c(NC(=O)c2cc3c(s2)CCCC3)cccc1-c1cn(C)c(=O)c(Nc2ccc(C3C(=O)N(C)CCN3C)cc2)n1 (centres undefined) | active: 20.6 µM and active: 20.9 µM | active: 7.31 µM and active: 16.6 µM | inconclusive: 31.6 µM [cytotoxic, single point] | inconclusive: 35.5 µM [cytotoxic, single point] |  |
| OC(CCN1CCCC1)(c1ccccc1)C1CCCCC1 (centres undefined) | inconclusive: 7.5 µM [cytotoxic, partial curve] | inconclusive: 33.5 µM [cytotoxic, partial curve, poor fit] | inconclusive: 20.6 µM [cytotoxic, single point] | inconclusive: 5.17 µM [cytotoxic, partial curve, poor fit] |  |
| CO[C@H]1/C=C/O[C@@]2(C)Oc3c(C)c(O)c4c(O)c(c(/C=N\N5CCN(C6CCCC6)CC5)c(O)c4c3C2=O)NC(=O)/C(C)=C\C=C\[C@H](C)[C@H](O)[C@@H](C)[C@@H](O)[C@@H](C)[C@H](OC(C)=O)[C@@H]1C | active: 18.6 µM | active: 11.8 µM | inconclusive: 25.1 µM [cytotoxic, single point] | inconclusive: 35.5 µM [cytotoxic, single point] |  |
| CCCCNc1ncc2c(-c3ccc(CN4CCN(C)CC4)cc3)cn(C3CCC(O)CC3)c2n1 (centres undefined) | inconclusive: 13 nM [cytotoxic, full curve] and inconclusive: 20.9 nM [cytotoxic, full curve] | inconclusive: 14.6 nM [cytotoxic, full curve] and active: 11.6 nM and active: 20.9 nM | inconclusive: 11.2 µM [cytotoxic, single point] | inconclusive: 1 µM [cytotoxic, full curve, poor fit] and active: 6.31 µM |  |
| Oc1c(I)cc(Cl)c2cccnc12 | inconclusive: 16.8 µM [cytotoxic, partial curve, poor fit] | inconclusive: 9.44 µM [cytotoxic, partial curve] | inconclusive: 18.4 µM [cytotoxic, single point] | active: 14.6 µM |  |
| FC1(F)C(F)(F)C(F)(F)C2(F)C(F)(F)C(F)(F)C(F)(F)C(F)(F)C2(F)C1(F)F (centres undefined) | inactive | inactive |  | inconclusive: 1.46 µM [cytotoxic, full curve] | inactive: 5.48% |
| CCOC(=O)C1=C(C)NC(C)=C(C(=O)OC)C1c1cccc(Cl)c1Cl (centres undefined) | inconclusive: 16.8 µM [cytotoxic, partial curve] | inconclusive: 21.1 µM [cytotoxic, partial curve] | inconclusive: 16.4 µM [cytotoxic, single point] | inconclusive: 29.1 µM [cytotoxic, single point] |  |
| NC(=S)N/N=C/c1ncccc1N | inconclusive: 2.63 µM [cytotoxic, full curve] | inconclusive: 2.95 µM [cytotoxic, full curve] | inconclusive: 31.6 µM [cytotoxic, single point] | inactive |  |
| Cc1cc(O)c(C(C)C)cc1Cl | inactive | inconclusive: 33.5 µM [cytotoxic, single point] | inconclusive: 23.1 µM [cytotoxic, single point] | inconclusive: 13 µM [cytotoxic, single point] |  |
| CC(C)n1c(/C=C/[C@@H](O)C[C@@H](O)CC(=O)O)c(-c2ccc(F)cc2)c2ccccc21 | inconclusive: 29.9 µM [cytotoxic, single point] | inconclusive: 2.66 µM [cytotoxic, partial curve, poor fit] |  | inconclusive: 3.26 µM [cytotoxic, partial curve, poor fit] | inactive: 5.25% |
